# In the supplement of paper PMC10037445:
# In all, about 2,900 compounds were measured (“IRF Lucia reporter activity, fold change vs agonist alone”: median about 0.9, highest 2% from about 2.8 on). Some of the results follow.
# Legend:
# RAW-Dual [1] = test: IRF Lucia reporter activity, fold change vs agonist alone; higher = enhanced IRF activity; conditions: agonist: MPLA (TLR4) […]
# How it was run: (§1)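 Supernatant from RAW-Dual macrophages was read after 20 hours for IRF by QuantiLuc luminescence and for NF-κB by QuantiBlue absorbance at 620 nm. The cells (50,000 cells/well in DMEM, 384-well plates, 37 °C, 5% CO2) had received 50 nL of library stock by pin tool and, 1 h later, a PRR agonist. Reporter activity is expressed relative to agonist-alone wells as fold change, and wells were flagged cytotoxic if IncuCyte confluency was under 70% of agonist controls in both mask sets.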
# RAW-Dual [2] = test: IRF Lucia reporter activity, fold change vs agonist alone; cytotoxicity flag (confluency mask): not cytotoxic; higher = enhanced IRF activity
# How it was run: as §1
# RAW-Dual [3] = test: IRF Lucia reporter activity, fold change vs agonist alone; cytotoxicity flag (confluency mask): cytotoxic (confluency <70% of control); higher = enhanced IRF activity
# How it was run: as §1
# [4] = library stock concentration (final ~1000-fold dilution): 10 mM, cytotoxicity flag (confluency mask): not cytotoxic
# [5] = agonist: 3'3'-cGAMP (STING) 10 ug/mL
smiles,measurement,setting,value
CC(C)C(NC(=O)C(CC(=O)O)NC(=O)C(CCCCN)NC(=O)C(N)CCCNC(=N)N)C(=O)NC(Cc1ccc(O)cc1)C(=O)O (stereo unspecified),IRF Lucia reporter activity,RAW-Dual [1]; [4],0.987
CC(C)C(NC(=O)C(CC(=O)O)NC(=O)C(CCCCN)NC(=O)C(N)CCCNC(=N)N)C(=O)NC(Cc1ccc(O)cc1)C(=O)O (stereo unspecified) (library stock concentration (final ~1000-fold dilution): 10 mM),IRF Lucia reporter activity,RAW-Dual [2]; [5],1.04
same,IRF Lucia reporter activity,RAW-Dual [2]; agonist: LPS (TLR4) 0.1 ug/mL,0.875
Cl.OC(CCN1CCCCC1)(c1ccccc1)C1CCCCC1 (stereo unspecified) (library stock concentration (final ~1000-fold dilution): 10 mM),IRF Lucia reporter activity,RAW-Dual [2]; [5],0.687
same,IRF Lucia reporter activity,RAW-Dual [2]; agonist: LPS (TLR4) 0.1 ug/mL,1.49
Cl.OC(CCN1CCCCC1)(c1ccccc1)C1CCCCC1 (stereo unspecified),IRF Lucia reporter activity,RAW-Dual [1]; [4],1.21
CC1=C(CSC(=S)N2CCCCC2)C(=O)c2ccccc2C1=O (library stock concentration (final ~1000-fold dilution): 10 mM),IRF Lucia reporter activity,RAW-Dual [3]; [5],0.553
same,IRF Lucia reporter activity,RAW-Dual [3]; agonist: LPS (TLR4) 0.1 ug/mL,0.0143
COc1cc(O)c(C(=O)Nc2nc(C(=O)NCCN(C(C)C)C(C)C)cs2)cc1OC.Cl.O.O.O,IRF Lucia reporter activity,RAW-Dual [1]; [4],1.03
COc1cc(O)c(C(=O)Nc2nc(C(=O)NCCN(C(C)C)C(C)C)cs2)cc1OC.Cl.O.O.O (library stock concentration (final ~1000-fold dilution): 10 mM),IRF Lucia reporter activity,RAW-Dual [2]; [5],0.967
same,IRF Lucia reporter activity,RAW-Dual [2]; agonist: LPS (TLR4) 0.1 ug/mL,0.665
NC(CSC(c1ccccc1)(c1ccccc1)c1ccccc1)C(=O)O (stereo unspecified),IRF Lucia reporter activity,RAW-Dual [1]; [4],1.49
NC(CSC(c1ccccc1)(c1ccccc1)c1ccccc1)C(=O)O (stereo unspecified) (library stock concentration (final ~1000-fold dilution): 10 mM),IRF Lucia reporter activity,RAW-Dual [2]; [5],0.693
same,IRF Lucia reporter activity,RAW-Dual [2]; agonist: LPS (TLR4) 0.1 ug/mL,1.77
OCC(O)CN1CCN(c2ccccc2)CC1 (stereo unspecified),IRF Lucia reporter activity,RAW-Dual [1]; [4],1.13
OCC(O)CN1CCN(c2ccccc2)CC1 (stereo unspecified) (library stock concentration (final ~1000-fold dilution): 10 mM),IRF Lucia reporter activity,RAW-Dual [2]; [5],1.06
same,IRF Lucia reporter activity,RAW-Dual [2]; agonist: LPS (TLR4) 0.1 ug/mL,1.05
COc1ccc(-c2coc3cc(O)cc(O)c3c2=O)cc1,IRF Lucia reporter activity,RAW-Dual [1]; [4],1.12
COc1ccc(-c2coc3cc(O)cc(O)c3c2=O)cc1 (library stock concentration (final ~1000-fold dilution): 10 mM),IRF Lucia reporter activity,RAW-Dual [2]; [5],1.05
same,IRF Lucia reporter activity,RAW-Dual [2]; agonist: LPS (TLR4) 0.1 ug/mL,1.22
CCCCC1=NC2(CCCC2)C(=O)N1Cc1ccc(-c2ccccc2-c2nn[nH]n2)cc1,IRF Lucia reporter activity,"RAW-Dual [1]; library stock concentration (final ~1000-fold dilution): 2 mM, cytotoxicity flag (confluency mask): not cytotoxic",1.19
CCCCC1=NC2(CCCC2)C(=O)N1Cc1ccc(-c2ccccc2-c2nn[nH]n2)cc1 (library stock concentration (final ~1000-fold dilution): 2 mM),IRF Lucia reporter activity,RAW-Dual [2]; [5],1.07
same,IRF Lucia reporter activity,RAW-Dual [2]; agonist: LPS (TLR4) 0.1 ug/mL,1.02
CC(C)(C)c1cc(/C=C(\C#N)C(N)=S)cc(C(C)(C)C)c1O (library stock concentration (final ~1000-fold dilution): 10 mM),IRF Lucia reporter activity,RAW-Dual [3]; [5],0.0348
same,IRF Lucia reporter activity,RAW-Dual [3]; agonist: LPS (TLR4) 0.1 ug/mL,0.763
CC(C)(C)c1cc(/C=C(\C#N)C(N)=S)cc(C(C)(C)C)c1O,IRF Lucia reporter activity,"RAW-Dual [1]; library stock concentration (final ~1000-fold dilution): 10 mM, cytotoxicity flag (confluency mask): cytotoxic (confluency <70% of control)",0.726
